# Out of some 310,000 compounds screened, about 2,200 (0.71%) showed an effect of 50% or more. The effect is printed as a negative number. The list shows a part of the results.
# Target: human ether-à-go-go-related gene (hERG) potassium channel (human, UniProt Q12809)
# Assay: primary screen, population patch clamp on CHO cells stably expressing hERG
# Chain of human ether-à-go-go-related gene (hERG) potassium channel (Q12809 whole entry, looked up): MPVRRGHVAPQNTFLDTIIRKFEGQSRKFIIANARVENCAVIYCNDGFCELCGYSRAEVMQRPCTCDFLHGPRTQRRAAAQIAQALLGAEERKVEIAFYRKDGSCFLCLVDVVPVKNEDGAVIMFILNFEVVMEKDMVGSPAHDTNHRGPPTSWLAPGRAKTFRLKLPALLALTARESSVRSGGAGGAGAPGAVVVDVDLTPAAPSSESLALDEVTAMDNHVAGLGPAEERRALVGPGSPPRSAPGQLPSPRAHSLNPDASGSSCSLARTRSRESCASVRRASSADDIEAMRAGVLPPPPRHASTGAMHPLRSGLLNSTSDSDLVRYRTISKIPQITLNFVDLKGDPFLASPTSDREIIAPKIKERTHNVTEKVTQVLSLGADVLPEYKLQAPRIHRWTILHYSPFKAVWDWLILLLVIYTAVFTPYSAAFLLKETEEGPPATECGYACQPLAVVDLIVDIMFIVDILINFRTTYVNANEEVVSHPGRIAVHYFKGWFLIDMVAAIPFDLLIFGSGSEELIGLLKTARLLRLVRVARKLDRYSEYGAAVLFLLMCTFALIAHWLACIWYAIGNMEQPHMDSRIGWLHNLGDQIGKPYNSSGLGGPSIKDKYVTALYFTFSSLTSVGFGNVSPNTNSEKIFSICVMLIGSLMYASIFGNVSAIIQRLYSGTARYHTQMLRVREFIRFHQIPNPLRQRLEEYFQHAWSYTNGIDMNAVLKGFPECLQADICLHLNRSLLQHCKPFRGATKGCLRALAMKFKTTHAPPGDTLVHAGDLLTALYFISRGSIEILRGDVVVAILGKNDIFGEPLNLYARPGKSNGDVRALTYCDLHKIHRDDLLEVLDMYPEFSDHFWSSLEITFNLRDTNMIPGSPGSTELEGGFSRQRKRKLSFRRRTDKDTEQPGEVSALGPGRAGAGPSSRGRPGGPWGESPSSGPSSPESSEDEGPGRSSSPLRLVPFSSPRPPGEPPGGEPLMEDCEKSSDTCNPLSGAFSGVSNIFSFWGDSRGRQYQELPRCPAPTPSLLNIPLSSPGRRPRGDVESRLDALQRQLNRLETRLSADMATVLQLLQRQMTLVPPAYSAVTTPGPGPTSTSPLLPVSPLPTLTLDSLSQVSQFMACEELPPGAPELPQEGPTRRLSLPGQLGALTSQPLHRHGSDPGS
row,Compound,"hERG current change (%, negative = inhibition) at 1uM"
1,O=C1NC(=O)C2(CCc3ccccc32)N1 (centres unmarked),10.8%
2,C=C(C)c1cccc(C(C)(C)NC(=O)N2CCN(C)CC2)c1,13.3%
3,COc1cccc(/C=C2/C(=O)NN(c3ccc(F)cc3)C2=O)c1,6.82%
4,O=C(CSc1nc2ccccc2c(=O)n1CC1CCCO1)Nc1ccc(F)cc1 (centres unmarked),4.67%
5,CN(C(=O)c1ccncc1)C1CCCCC1,18.7%
6,CCN(CC)C(=O)c1sc(NC(=O)c2ccncc2)c(C(=O)OC)c1C,9.94%
7,COC(=O)c1sc2cc(=O)n(-c3cccc(C(F)(F)F)c3)nc2c1O,-5.78%
8,CNC(=O)NNC(=O)c1csc(Cc2c(Cl)sc3ccc(Cl)cc23)n1,7.53%
9,COC(=O)c1c(C)[nH]c(O)c1C=Nc1ccc(Oc2ccccc2)cc1,10.5%
10,CNC(=O)c1c(NC(=O)CCS(=O)(=O)c2ccccc2)sc(C)c1C,9.04%
11,CCCCN1C(=O)c2ccc(C(=O)Nc3ccc(C)c(S(=O)(=O)N(C)C)c3)cc2C1=O,-3.31%
12,Cc1ccc(S(=O)(=O)NCc2ccc(C(=O)N3CCN(c4ccc([N+](=O)[O-])cc4)CC3)cc2)cc1,2.06%
13,CCc1noc(C)c1C(=O)NNC(=O)c1ccc(N(CC)CC)cc1,14.6%
14,C/C(=N\NC(=O)c1nn(C)c(C)c1Br)c1ccc(NC(=O)c2ccccc2F)cc1,23.5%
15,Fc1ccccc1C(c1nnnn1Cc1ccc2c(c1)OCO2)N1CCN(Cc2ccccc2)CC1 (centres unmarked),-9.88%
16,Cc1ccc2c(c1)=C/C(=C\c1c(O)[nH]c(=S)[nH]c1=O)C(=O)N=2,8.19%
17,Cc1nonc1NC(=O)c1oc2ccccc2c1C,10.4%
18,C=CCc1cc(Cl)ccc1OCCNCCOC.O=C(O)C(=O)O,1.7%
19,O=C1CC(N2CCN(c3ccc(C(=O)c4ccc(F)cc4)cc3)CC2)C(=O)N1 (centres unmarked),-10.5%
20,CC(Sc1nnnn1C)C(=O)NC1CCCc2ccccc21 (centres unmarked),11.7%
21,O=C(N/N=C/c1ccccn1)c1cc([N+](=O)[O-])cc([N+](=O)[O-])c1,-3.52%
22,Cc1cccc(C(C)C)c1NC(=O)c1ccc(COc2ccc3c(C)cc(=O)oc3c2)cc1,11.2%

row,Compound,"hERG current change (%, negative = inhibition) at 1uM"
1,CCc1ccc(C2CC(=O)N3CN(c4ccccc4)CSC3=C2C#N)cc1 (centres unmarked),17.3%
2,CCCn1c(SCC(=O)NC2CCCC2)nnc1C(C)C,6.51%
3,COCc1nc2ccccc2n1CCc1ccccc1,-38%
4,Cc1ccc(-n2c(=O)cc(N3CCC(C)CC3)[nH]c2=O)cc1,10.7%
5,O=C(Cc1ccc(F)cc1)N(c1ccccc1)C1C=CS(=O)(=O)C1 (centres unmarked),-3.81%
6,Cc1cc(C)n(CC(=O)Nc2ccc(N3CCOCC3)c(Cl)c2)c(=O)c1C#N,11.8%
7,N#C/C(=C\c1ccc(O)c(O)c1)C(=O)NCCCc1ccccc1,14.7%
8,COc1cc(C)c(S(=O)(=O)NOCc2ccc([N+](=O)[O-])cc2)c(C)c1C,10.5%
9,CC(c1ccco1)N(C(=O)COc1ccccc1[N+](=O)[O-])c1ccccn1 (centres unmarked),0.845%
10,CCCOc1cccc(C2/C(=C(/O)c3ccc(F)cc3)C(=O)C(=O)N2CCN(C)C)c1 (centres unmarked),15.4%
11,CCN(CC)CCN(C(=O)c1ccc2c(c1)OCCO2)c1nc2c(Cl)cccc2s1.Cl,-16.9%
12,O=C(NNC(=O)c1cccs1)c1ccc(Br)o1,20.7%
13,COCCN(CCOC)Cc1cc(=O)oc2cc3c(cc12)CCC3,7.06%
14,S=c1[nH]cnc2scc(-c3ccc(Br)cc3)c12,0.229%
15,Cc1cc(C)c(NC(=O)COc2nncc3ccccc23)c(C)c1,8.12%
16,COc1ccc(CN2CCSCC2)c(OC)c1C,11.6%
17,O=C(CSc1ccc2c(c1)OCCO2)NCC1CCCO1 (centres unmarked),10.1%
18,O=C(O)/C(=C\c1cccc(C(F)(F)F)c1)c1ccc(S(=O)(=O)N2CCCC2)s1,20.2%
19,COc1cccc(CN2CCNC(=O)C2CC(=O)N(C)CCC2CCOCC2)c1 (centres unmarked),13.8%
20,COc1ccc(CCNC(=O)Nc2ccccc2[N+](=O)[O-])cc1,8.1%
21,Cc1ccc(N(C(=O)c2ccccn2)C2(C(=O)NC3CCCC3)CCCCC2)cc1,16.9%
22,O=S(=O)(NC1CCN(S(=O)(=O)c2c(F)cccc2F)C1)c1ccc2c(c1)OCCO2 (centres unmarked),8.29%
